The list shows a part of the results.
Columns and labels:
Experiment in all cases: glycan array binding signal (z-score within array); higher = stronger binding
Conditions in all cases: glycan notation: IUPAC condensed, linker removed
[1] = molecular target: Neu5Ac(a2-6)Gal(b1-4)GlcNAc(b1-2)Man(a1-3)[Neu5Ac(a2-3)Gal(b1-4)GlcNAc(b1-2)Man(a1-6)]Man(b1-4)GlcNAc(b1-4)GlcNAc
Outline: (§1)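 Glycan array data were curated from 3228 arrays in the Consortium for Functional Glycomics database and kept only where the protein sequence was available. Glycan names were converted to IUPAC-condensed notation, and columns mapping to the same glycan were averaged. The binding signal is a within-array Z-score, averaged across arrays of the same protein sequence at different concentrations or buffers and across linkers. Negative Z-scores can be read as non-binding.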

[2] = molecular target: Neu5Ac(a2-6)Gal(b1-4)GlcNAc(b1-2)Man(a1-3)[Neu5Ac(a2-6)Gal(b1-4)GlcNAc(b1-2)Man(a1-6)]Man(b1-4)GlcNAc(b1-4)GlcNAc
Outline: as §1

[3] = molecular target: Neu5Ac(a2-6)Gal(b1-4)GlcNAc(b1-2)Man(a1-3)[Neu5Ac(a2-6)Gal(b1-4)GlcNAc(b1-2)Man(a1-6)]Man(b1-4)GlcNAc(b1-4)[Fuc(a1-6)]GlcNAc
Outline: as §1

[4] = molecular target: Neu5Ac(a2-6)Gal(b1-4)GlcNAc(b1-2)Man(a1-6)Man(b1-4)GlcNAc(b1-4)GlcNAc
Outline: as §1

[5] = molecular target: Neu5Ac(a2-6)Gal(b1-4)GlcNAc(b1-2)Man(a1-6)[Gal(b1-4)GlcNAc(b1-2)Man(a1-3)]Man(b1-4)GlcNAc(b1-4)GlcNAc
Outline: as §1

[6] = molecular target: Neu5Ac(a2-6)Gal(b1-4)GlcNAc(b1-2)Man(a1-6)[GlcNAc(b1-2)Man(a1-3)]Man(b1-4)GlcNAc(b1-4)GlcNAc
Outline: as §1

[7] = molecular target: Neu5Ac(a2-6)Gal(b1-4)GlcNAc(b1-2)Man(a1-6)[Man(a1-3)]Man(b1-4)GlcNAc(b1-4)GlcNAc
Outline: as §1

[8] = molecular target: Neu5Ac(a2-6)Gal(b1-4)GlcNAc(b1-2)[Neu5Ac(a2-6)Gal(b1-4)GlcNAc(b1-4)]Man(a1-3)[GlcNAc(b1-4)][Neu5Ac(a2-6)Gal(b1-4)GlcNAc(b1-2)[Neu5Ac(a2-6)Gal(b1-4)GlcNAc(b1-6)]Man(a1-6)]Man(b1-4)GlcNAc(b1-4)GlcNAc
Outline: as §1

[9] = molecular target: Neu5Ac(a2-6)Gal(b1-4)GlcNAc(b1-2)[Neu5Ac(a2-6)Gal(b1-4)GlcNAc(b1-4)]Man(a1-3)[GlcNAc(b1-4)][Neu5Ac(a2-6)Gal(b1-4)GlcNAc(b1-4)Man(a1-6)]Man(b1-4)GlcNAc(b1-4)GlcNAc
Outline: as §1

[10] = molecular target: Neu5Ac(a2-6)Gal(b1-4)GlcNAc(b1-2)[Neu5Ac(a2-6)Gal(b1-4)GlcNAc(b1-6)]Man(a1-6)[Neu5Ac(a2-6)Gal(b1-4)GlcNAc(b1-2)Man(a1-3)][GlcNAc(b1-4)]Man(b1-4)GlcNAc(b1-4)GlcNAc
Outline: as §1

[11] = molecular target: Neu5Ac(a2-6)Gal(b1-4)GlcNAc(b1-3)Gal(b1-3)GlcNAc
Outline: as §1

[12] = molecular target: Neu5Ac(a2-6)Gal(b1-4)GlcNAc(b1-3)Gal(b1-4)GlcNAc
Outline: as §1

[13] = molecular target: Neu5Ac(a2-6)Gal(b1-4)GlcNAc(b1-3)Gal(b1-4)GlcNAc(b1-2)Man(a1-3)[Neu5Ac(a2-6)Gal(b1-4)GlcNAc(b1-3)Gal(b1-4)GlcNAc(b1-2)Man(a1-6)]GalNAc
Outline: as §1

[14] = molecular target: Neu5Ac(a2-6)Gal(b1-4)GlcNAc(b1-3)Gal(b1-4)GlcNAc(b1-3)Gal(b1-4)GlcNAc
Outline: as §1

[15] = molecular target: Neu5Ac(a2-6)Gal(b1-4)GlcNAc(b1-3)Gal(b1-4)GlcNAc(b1-3)Gal(b1-4)GlcNAc(b1-2)Man(a1-3)[Neu5Ac(a2-6)Gal(b1-4)GlcNAc(b1-3)Gal(b1-4)GlcNAc(b1-3)Gal(b1-4)GlcNAc(b1-2)Man(a1-6)]GalNAc
Outline: as §1

[16] = molecular target: Neu5Ac(a2-6)Gal(b1-4)GlcNAc(b1-3)Gal(b1-4)GlcNAc(b1-3)GalNAc
Outline: as §1

[17] = molecular target: Neu5Ac(a2-6)Gal(b1-4)GlcNAc(b1-3)Gal(b1-4)GlcNAc(b1-3)[Neu5Ac(a2-6)Gal(b1-4)GlcNAc(b1-3)Gal(b1-4)GlcNAc(b1-6)]GalNAc
Outline: as §1

[18] = molecular target: Neu5Ac(a2-6)Gal(b1-4)GlcNAc(b1-3)Gal(b1-4)GlcNAc(b1-6)[Gal(b1-3)]GalNAc
Outline: as §1

[19] = molecular target: Neu5Ac(a2-6)Gal(b1-4)GlcNAc(b1-3)Gal(b1-4)[Fuc(a1-3)]GlcNAc(b1-3)Gal(b1-4)[Fuc(a1-3)]GlcNAc
Outline: as §1

[20] = molecular target: Neu5Ac(a2-6)Gal(b1-4)GlcNAc(b1-3)GalNAc
Outline: as §1

[21] = molecular target: Neu5Ac(a2-6)Gal(b1-4)GlcNAc(b1-3)[Neu5Ac(a2-6)Gal(b1-4)GlcNAc(b1-6)]GalNAc
Outline: as §1

[22] = molecular target: Neu5Ac(a2-6)Gal(b1-4)GlcNAc(b1-6)GalNAc
Outline: as §1

[23] = molecular target: Neu5Ac(a2-6)Gal(b1-4)GlcNAc(b1-6)[Gal(b1-3)GlcNAc(b1-3)]Gal(b1-4)Glc
Outline: as §1

[24] = molecular target: Neu5Ac(a2-6)Gal(b1-4)GlcNAc(b1-6)[Gal(b1-3)]GalNAc
Outline: as §1

[25] = molecular target: Neu5Ac(a2-6)Gal(b1-4)GlcNAc6S
Outline: as §1

[26] = molecular target: Neu5Ac(a2-6)GalNAc
Outline: as §1

[27] = molecular target: Neu5Ac(a2-6)GalNAc(b1-4)GlcNAc
Outline: as §1

[28] = molecular target: Neu5Ac(a2-6)GalNAc(b1-4)GlcNAc6S
Outline: as §1

[29] = molecular target: Neu5Ac(a2-6)GlcNAc(b1-4)GlcNAc
Outline: as §1

[30] = molecular target: Neu5Ac(a2-6)GlcNAc(b1-4)GlcNAc(b1-4)GlcNAc
Outline: as §1

B1: FliD (Clostridium difficile) (protein)
chain: MSSISPVRVTGLSGNFDMEGIIEASMIRDKEKVNKAKQDQQIVKWKQEIYRDIIKESKNLYDKYLNGDSPNSITNKKAYSATRITSSDESIIVAKGSAGAEKINYQFAVSQMAEPAKVTIKLNSSDPIVQQFPPNASGASSLNIGGVNIPISEQDTTSTIVSKINSLCADNDIRASYSEMTGELIISRKQTGSSSDIDLKVIGNDSLAGQIASDNGITFTTDASGTKSAVVYGKNLEADVTDDQGRVTHISKEQNSFKIDNIDYNVNSKGSAKLVSVTDTEEATKNMKAFVDDYNALMDKVYGLVTTKKSKDYPPLTDEQKDDMTTEEIEKWEKKAKEGILRNDDELRAFVEDIQSMFFGDADTIIALRKLGISEHENYNKKGQISFNADTFSKALIDDSDKVYKALAGYSSNYDDKGMFEKLKKIVFEYSGSSASKLTKKAGMENSSSASQNVYSKQIAEQERNISRLVEKMNDKEKRLYAKYSALESLLNKYSSQMNYFSQAQGN
- glycan array binding signal (z-score) [1]: -0.207
- glycan array binding signal (z-score) [2]: -0.145
- glycan array binding signal (z-score) [3]: 0.021
- glycan array binding signal (z-score) [4]: -0.179
- glycan array binding signal (z-score) [5]: -0.169
- glycan array binding signal (z-score) [6]: -0.223
- glycan array binding signal (z-score) [7]: -0.197
- glycan array binding signal (z-score) [8]: -0.249
- glycan array binding signal (z-score) [9]: -0.074
- glycan array binding signal (z-score) [10]: -0.221
- glycan array binding signal (z-score) [11]: -0.263
- glycan array binding signal (z-score) [12]: -0.268
- glycan array binding signal (z-score) [13]: -0.063
- glycan array binding signal (z-score) [14]: -0.173
- glycan array binding signal (z-score) [15]: -0.008
- glycan array binding signal (z-score) [16]: -0.237
- glycan array binding signal (z-score) [17]: 0.001
- glycan array binding signal (z-score) [18]: -0.161
- glycan array binding signal (z-score) [19]: -0.193
- glycan array binding signal (z-score) [20]: -0.097
- glycan array binding signal (z-score) [21]: -0.217
- glycan array binding signal (z-score) [22]: -0.021
- glycan array binding signal (z-score) [23]: 0.276
- glycan array binding signal (z-score) [24]: -0.225
- glycan array binding signal (z-score) [25]: -0.203
- glycan array binding signal (z-score) [26]: -0.201
- glycan array binding signal (z-score) [27]: -0.25
- glycan array binding signal (z-score) [28]: 0.312
- glycan array binding signal (z-score) [29]: -0.175
- glycan array binding signal (z-score) [30]: -0.261

From the supplement of paper PMC8728848
